The campaign covered roughly 420,000 compounds. About 64,000 (15%) were called active. Inconclusive means that the source gave no clear call. Such entries were picked first, then a sample of the others. The call rests on the fitted dose curve; in most records, active means well fitted inhibition curve with a large enough effect; inconclusive means small, poorly fitted or top-dose-only effect; inactive means flat fitted curve, though single readings scatter. No potency is given beside an inconclusive call; the fits are too rough.
Assay: qHTS for Inhibitors of human tyrosyl-DNA phosphodiesterase 1 (TDP1): qHTS in cells in absence of CPT; further: nearly all actives have a fitted effect of over 55% in size
Conditions: DT40 Tdp1-/- hTDP1 cells, no CPT, ATP luminescence, 48 h; activity change, negative = growth inhibition: at 46.2 µM (top of the series) unless noted
Method in brief: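 Seeded 400 DT40-hTDP1 cells/well (vehicle DMSO, no 20 nM CPT); pinned compounds; ≥48 hr at 37 °C; CellTiter-Glo luminescence as viability measure.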
With COc1cccc(O)c1CN1CCC(C(=O)Nc2ccc(-c3cccc(C)c3)cc2)CC1 the Potency was active: 16.4 µM.
In the case of CCN(CC)C(=O)C1CCN(S(=O)(=O)c2c(C)noc2/C=C/c2cccc(C)c2)CC1, the Potency is reported as inconclusive [inhibitor, partial curve, poor fit].
In the case of COc1cccc(CNc2nc3ccccc3n2CCN2CCCCC2)c1, the Potency is reported as inconclusive [inhibitor, single point].
In the case of CCOC(=O)N1CCC(NC(=O)c2ccc3c(c2)N=C(CC)c2ccccc2S3)CC1, the Potency is reported as inconclusive [inhibitor, single point].
With CCCSC(=S)NC1CCS(=O)(=O)C1 (stereo unspecified) the Potency was active: 20.6 µM.
In the case of CCOc1ccc(NC(=O)NNC(=O)C2CCC(C(C)(C)C)CC2)cc1 (stereo unspecified), the Potency is reported as “inactive”.
For Cc1nnc(-c2ccccc2)nc1N(C)C, the Potency was “inactive”.
In the case of O=C(c1cccc(-c2ccccc2)c1)N1CC[C@@H](N2CCC(O)CC2)[C@H](O)C1, the Potency is reported as “inactive”.
With COc1ccc(C(=O)N2CCC(C(=O)Nc3ccc(Cl)cc3)CC2)cc1 the Potency was inconclusive [inhibitor, single point].
With COCC(=O)Nc1c(C(=O)Nc2ccc3c(c2)OCCO3)oc2ccccc12 the Potency was inconclusive [inhibitor, partial curve].
For CCN(CC(=O)NCc1ccc(F)cc1)C(=O)c1cc2ccccc2o1, the Potency was “inactive”.
For Cc1nc(NCCc2ccccc2)sc1C(=O)N(C)C, the Potency was inconclusive [inhibitor, single point].
For COc1cccc(CSc2nc3n(n2)C(CC(C)C)C(C(=O)Nc2ccccc2OC)=C(C)N3)c1 (stereo unspecified), the Potency was active: 13 µM.
With S=C(Nc1ccccc1)N1CCOCCOCCN(C(=S)Nc2ccccc2)CCOCCOCC1 the Potency was inconclusive [inhibitor, single point].
In the case of CN1CCCC2(CCN(C(=O)c3cnccn3)CC2)C1, the Potency is reported as “inactive”.
In the case of CC(OC(=O)c1cc(=O)[nH]c2ccccc12)c1ccccc1 (stereo unspecified), the Potency is reported as inconclusive [inhibitor, single point].
With CCc1ccc(CN(C)CC(O)COc2cccc3ccccc23)cc1 (stereo unspecified) the Potency was inconclusive [inhibitor, single point].
In the case of CC(OC(=O)/C=C/c1ccc2ccccc2n1)C(=O)Nc1ccc(S(N)(=O)=O)cc1 (stereo unspecified), the Potency is reported as inconclusive [inhibitor, full curve].
With CCN(CC)c1nc(NNC(=O)c2ccccc2)nc(N(CC)CC)n1 the Potency was inconclusive [inhibitor, partial curve].
In the case of CC(CS(=O)(=O)c1ccc2c(c1)NC(=O)CS2)C(=O)N1CCN(c2cccc(Cl)c2)CC1 (stereo unspecified), the Potency is reported as inconclusive [inhibitor, partial curve, poor fit].
For NC(=S)N/N=C/c1ccc2ccccc2c1, the Potency was active: 23.1 µM.
With Oc1ccc(/C=N/NC(=S)N/N=C/c2ccc(O)cc2)cc1 the Potency was inconclusive [inhibitor, partial curve].
With Nc1c(C(=O)c2ccc(Cl)cc2)sc2c1c(=O)[nH]c(=O)n2-c1ccccc1 the Potency was “inactive”.
In the case of Cc1c(NC(=S)NC(=O)c2ccc(-c3ccc(Cl)cc3)o2)cccc1C(=O)O, the Potency is reported as “inactive”.
For CCOC(=O)C1CCN(C(=O)COc2cc(C)c(Br)cc2C)CC1, the Potency was inconclusive [inhibitor, partial curve].
In the case of CCSc1oc(-c2ccco2)nc1S(=O)(=O)c1ccccc1, the Potency is reported as inconclusive [inhibitor, partial curve].
In the case of Cc1nn(-c2ccccc2)c(Cl)c1C(=O)OCC(=O)NCCc1ccccc1, the Potency is reported as inconclusive [inhibitor, single point].
With C1NNCC12CNNC2 the Potency was “inactive”.
With O=C(CN1CCOCC1)Nc1ncc(Cc2cccc3ccccc23)s1 the Potency was inconclusive [inhibitor, partial curve].
For COc1ccc(C2c3sc(=O)[nH]c3SC3C4CCC(C4)C23)cc1OC (stereo unspecified), the Potency was inconclusive [inhibitor, partial curve].
With CC1CCCCC1NC(=O)c1ccc(CSc2nc3ccncc3[nH]2)cc1 (stereo unspecified) the activity change, negative = growth inhibition was inconclusive: -32.1% [inhibitor].
With CCCCN(C(=O)c1ccc(C#N)cc1)c1c(N)n(CCC)c(=O)[nH]c1=O the activity change, negative = growth inhibition was inconclusive: -23.6% [inhibitor].
With Cc1cc(=O)n2nc(N(C)CC(=O)NCc3cccc(Br)c3)sc2n1 the Potency was “inactive”.
With Nn1c(SCC(=O)N2CCN(S(=O)(=O)c3ccc(Cl)cc3)CC2)nnc1-c1cccs1 the Potency was “inactive”.
For NC(=O)NCCCC(=O)NCC(c1ccccc1Cl)c1c[nH]c2ccccc12 (stereo unspecified), the Potency was inconclusive [inhibitor, single point].
In the case of CCCCC1(C)NC(=O)N(CC(=O)Nc2cc(S(=O)(=O)N3CCOCC3)ccc2Cl)C1=O (stereo unspecified), the Potency is reported as “inactive”.
With CC(C)(C)Cc1c(-c2ccc(Cl)cc2)nc2ccc(Br)cn12 the Potency was inconclusive [inhibitor, single point].
With Cc1ccc(-n2nnnc2SCC(=O)N2CC(=O)Nc3ccccc32)cc1 the Potency was inconclusive [inhibitor, single point].
In the case of CCn1nnc(NC(=O)C(C)Oc2ccc(Cl)cc2Cl)n1 (stereo unspecified), the Potency is reported as “inactive”.
In the case of O=C(c1ccccc1)C(CN1CCCCC1)c1ccccc1 (stereo unspecified), the Potency is reported as active: 2.06 µM.
In the case of COCCCNc1nc2c(-c3cccc(C)c3)nnn2c2ccc(Cl)cc12, the Potency is reported as inconclusive [inhibitor, partial curve].
With CCOC(=O)C1CCN(C(=S)Nc2ccc(CC)cc2)CC1 the Potency was “inactive”.
In the case of O=C(CN1c2cccc3cccc(c23)S1(=O)=O)Nc1ccc(S(=O)(=O)N2CCOCC2)cc1, the Potency is reported as inconclusive [inhibitor, single point].
In the case of CCCCN(CC)C(=O)Cn1nc(Cc2ccncc2)c2ccccc2c1=O, the Potency is reported as “inactive”.
For CCOc1ccc(OCC)c(NC(=O)Cn2nc(CC)n3c(cc4sccc43)c2=O)c1, the Potency was inconclusive [inhibitor, single point].
For Cc1ccc(/C=N/NC(=O)CSc2nc3ccccc3n2Cc2ccc(Cl)cc2)o1, the Potency was inconclusive [inhibitor, single point].
With COC(=O)C1=C(C(=O)OC)[C@@H]2N(C)c3ccc(OC)cc3[C@@]23C[C@@H](C(=O)OC)N(C(=O)CC(C)C)C3=N1 the Potency was inconclusive [inhibitor, single point].
With Cc1ccc(/C(=C\CN2CCCC2)c2ccccn2)cc1 the Potency was inconclusive [inhibitor, partial curve, poor fit].
For CC(C(=O)NCC1CCCO1)N(C(=O)c1snc(C(N)=O)c1N)c1ccccc1 (stereo unspecified), the Potency was “inactive”.
In the case of C[C@H](NC(=O)c1ccccc1F)C(=O)N1CCC2(CC1)NCCc1[nH]cnc12, the Potency is reported as “inactive”.
With CCOC(=O)c1sc(N(Cc2ccccc2)C(=O)COC(=O)c2cnccn2)nc1C the Potency was inconclusive [inhibitor, single point].
With Cc1nn(C)c(C(=O)NC2C3CC4CC(C3)CC2C4)c1Cl (stereo unspecified) the Potency was inconclusive [inhibitor, partial curve].
For O=C(CCc1nc2ccccc2c(=O)[nH]1)Nc1ccccc1N1CCCCC1, the Potency was inconclusive [inhibitor, single point].
In the case of O=C(CNC(=S)N(Cc1ccccc1)Cc1cccs1)NCc1ccc(F)cc1, the Potency is reported as inconclusive [inhibitor, partial curve].
In the case of CS(=O)(=O)N(Cc1ccc(Cl)cc1)c1ccc(C(=O)NCc2ccccn2)cc1, the Potency is reported as “inactive”.
In the case of CCn1c(COc2ccc(C)cc2)nnc1SCC(=O)C(C)(C)C, the Potency is reported as inconclusive [inhibitor, single point].
For COCCNc1nnc(SCC(=O)NNC(=O)c2ccco2)s1, the Potency was “inactive”.
For COc1ccc(C(=O)c2c(-c3ccc(OC)cc3)oc3ccc(-c4cc(OC)c(OC)c(OC)c4)cc23)cc1, the Potency was active: 9.2 µM.
In the case of CC1CCC(NC(=O)C2CCC(CNc3c(N4CCCCC4)c(=O)c3=O)CC2)CC1 (stereo unspecified), the Potency is reported as inconclusive [inhibitor, single point].
For CN1CCN(c2nc3c(c(=O)n(C)c(=O)n3C)n2CCSc2nc3ccccc3s2)CC1, the Potency was inconclusive [inhibitor, partial curve].
With Cc1nc2ccc(S(=O)(=O)N(CC(=O)Nc3cccc(F)c3)Cc3ccccc3)cc2s1 the Potency was inconclusive [inhibitor, single point].
In the case of COc1cc(CNC(C)c2ccccc2)cc(Br)c1OCc1ccc(F)cc1 (stereo unspecified), the Potency is reported as inconclusive [inhibitor, single point].
With CC(CNC(=O)CC[C@H]1O[C@@H](n2ccc(=O)[nH]c2=O)[C@H](O)[C@@H]1O)c1ccccc1 (stereo partly specified) the Potency was “inactive”.
With CC(CCc1ccccc1)NC(=O)COC(=O)c1ccc(S(C)(=O)=O)c([N+](=O)[O-])c1 (stereo unspecified) the Potency was active: 2.31 µM.
For O=C(N/N=C/c1cc2c3c(c1O)CCCN3CCC2)c1ccccc1O, the Potency was active: 4.61 µM.
For CC1(C)CCCC2=C1CC1C(=O)N(Cc3cccnc3)C(=O)C1C2 (stereo unspecified), the activity change, negative = growth inhibition was inconclusive: -35% [inhibitor].
For CCCC(C)NC(=O)COc1ccc(Sc2ccc(OCC(=O)NC(C)CCC)cc2)cc1 (stereo unspecified), the Potency was active: 11.6 µM.
With C=CCOc1ccccc1CN1CCC(C(=O)Nc2cccc(-c3ccn[nH]3)c2)CC1 the Potency was inconclusive [inhibitor, single point].
With COc1ccccc1N(C)S(=O)(=O)c1ccc(C(=O)N2CCCC(C(F)(F)F)C2)cc1 (stereo unspecified) the Potency was active: 18.4 µM.
With CC(C)(C)c1ccc(/C=C/C(=O)Nc2ncccn2)cc1 the Potency was inconclusive [inhibitor, single point].
With CCc1cccc(OCCCCN(CC)CC)c1 the Potency was “inactive”.

Source: PubChem BioAssay AID686978 (National Center for Advancing Translational Sciences (NCATS), 2013)
On the % scale 0 is the no-effect control and ±100 the full control effect; potency means the concentration at half of the fitted maximal effect; tags describe the fitted curve by direction and shape.
